Measured values as given in the supplement of paper PMC11417369.
Some of the results follow.

Tested on: PF3D7_0420300 AP2 domain 1 (GST-tagged)
Assay: gcPBM binding intensity (ln(normalized median fluorescence intensity)); higher = stronger DNA binding
Method in brief: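 An Agilent 4 × 180k array of primer-extended double-stranded 36-bp intergenic genomic probes, with negative controls, was incubated for 1 h with GST-tagged P. falciparum DNA-binding domains expressed in E. coli. Alexa488 anti-GST antibody detected bound protein, scanned at 488 nm. Binding intensity is the highest Masliner-normalised natural-log median intensity across replicate spots of either probe orientation.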

Sequence	gcPBM binding intensity (ln)
AATATTTTAAAAAAATGTACTTTTAACCCTTATTGG [XGTACX_site3490]	8.91
TACATATTTACTATCACACACACGATATATATAAAT [CACACA_site1242]	9.93
ATACGAAAAAATAGACGTACTATGAAATAATAATTT [XGTACX_site8387]	9.27
TACTTAAAAAAAAAAAAAATAAATATTATGTATTAT [CACACA_negctrl_site138]	8.98
TAATATTTTAATTGTGTGCACATTAATATTATAAAA	9.17
TTTAGTGAGTTTGTTGTGCACTGAAAAAATTACAAT	9.1
TATATTATTTTTTGTGGTACATGTATTTTTACCTAA [XGTACX_site4348]	9.28
ACATGTAAATTTACATGTACATGTAACACTTAATAT [XGTACX_site4575]	9.39
AAAACAAACGGACACACACACATATATATATATATA [CACACA_site5924]	9.97
ATGCATACACTTATATGTACACATTTACATATTATT [XGTACX_site2841]	9.53
CGAAAGGAAATATAACGTACATAAGATTATATTCAC [XGTACX_site3868]	9.2
AATAAATAAATATATTGTACATATATATATATATAT [XGTACX_site8627]	9.11
ATGAACAAGGGGCACACACACATTATGACTAATTTA [CACACA_site3204]	9.95
TATTAAAAGAAAAAAAAAAAAAAATTAATACATATA [XGTACX_negctrl_site582]	9.07
TATTAATATATAGTAGTGCAATAAAGATATACTGAA	9.39
AACATACTCACGAACATACACACGGACATACATACG [CACACA_site603]	9.87
GTACATTATATATATACACACATACATAATAAAGAA [CACACA_site5528]	9.75
ATATGCTATTAATTATGTACATATATATATATATAT [XGTACX_site4901]	9.42
GGACTATACAGTTATACACACACATATATATATAAT [CACACA_site7991]	9.86
ACTACGTGTCAAAAATATTAATTACAAATGAATAAA [GTGCAC_negctrl_site248]	8.87
AAATGTTAAAAAGAGAAAAACAATAAAAAACAATTA [CACACA_negctrl_site1044]	9.4
AGGTGTCATAGATGCACACAAAAGTAACACGCACCT [CACACA_site4418]	9.44
AAAAGGTTATCAAAATGTACGAAATGTTACAAAAAT [XGTACX_site6215]	9.44

Sequence	gcPBM binding intensity (ln)
CTTAATTTTTTTTAATGTACATACATATAAACCTTT [XGTACX_site2233]	9.23
AGTTATATGTACTACACACGTACACAAAATAAGATA [CACACA_site3719]	9.57
AAAATTAAAAATAACACACACATATTTATATTTATA [CACACA_site7329]	9.75
TATTCTTTTATGAATACACACATATACGAAAATATT [CACACA_site6585]	9.36
AAGGAGAAATATTGCACACGTGCAAAATGGTATGAG [CACACA_site259]	9.48
TGTAATATTTTTCATGCATGCTCTTCTTTTACATAA [TGCATGCA_site144]	9.36
ATAATTTATATTACTTGTACATATTTATATGAACGA [XGTACX_site3610]	8.96
TATATTAAACAATATACACACATTAATGTATCCATA [CACACA_site5523]	9.45
TTATATATATATATATGTACACATATATAACATGAT [XGTACX_site6643]	9.21
ATAACCTAATAATACACACACATGAATATAAATAAC [CACACA_site6584]	10.2
ATATATATTTTATACGCATGTAATTATTATGTGGTC [TGCATGCA_site45]	9.29
AAACAATTTGGGTGTACACATGATACGTTCGATGAG [CACACA_site5160]	9.47
ATATTATACATTTATACACACATAAAAAGACAAAAA [CACACA_site3565]	9.75
TTTTTTTTCAATGGCACACATTTTAGATTTATGCTT [CACACA_site4735]	9.26
CATAAATAATATATTTGTACGAATAAAATTTGTTCA [XGTACX_site3445]	9.07
TAAAACAATATAAAATGTACAGAATTTTTTTTTCTT [XGTACX_site6820]	9.01
ATAATGAAAAGAAAGGGTACAAAAAAAAAAAAAAAT [XGTACX_site3350]	9.85
TTCTTTTATGATAATTGTACCCTTTTTAAAAAGAAA [XGTACX_site7815]	9.02
AACTGATTATTTTTTTGTACATATATAATAATATAT [XGTACX_site5953]	9.39
TATGTATATACATAAACATGCAAAAACAATATCTTA [TGCATGCA_site950]	9.19
TATTTATTTATTTAATGTACAAAAGAACAAGAATTT [XGTACX_site2248]	8.93
TCTTAATCGTATTATTACTATAATTATATAATATTT [CACACA_negctrl_site1594]	9.16
TTCTTCTGTTTTATTACACACCATTTTGTGTATACA [CACACA_site7059]	9.65

Sequence	gcPBM binding intensity (ln)
ATATATATATTATATAGTACAGAGTATACTATTATA [XGTACX_site1893]	9.19
AACGATATATGTACTACACACATTATGTCATCCTAT [CACACA_site2464]	9.74
CAAAAAGGAATGTATGCACACAATTGATTTTAACTC [CACACA_site1468]	9.46
GATCTAAAAACAAGGTGTACAAGAAAAAAAAAAAAA [XGTACX_site7577]	9.07
ACAAAAGGGGAATACACACACATATATATATATATA [CACACA_site2215]	9.74
ACATGTGAATTTTAGGTGCACTTGTAATTTAACATT	9.15
ATATATATATAATGTTGTACATAAATATTATATTTA [XGTACX_site5225]	8.98
TTTTTATTTATTCTCTTTGTATTATAAAATAAAAGC [XGTACX_negctrl_site253]	8.87
GGAAAAATATAATATGCATGTTATTATTTTTTTATA [TGCATGCA_site836]	9.06
ATATATATTTTTAATTGTACAGAATTAAAAATATTG [XGTACX_site1967]	8.98
AAAAAAAAAAAAAGCTGTACAATTAAAGACAAACCT [XGTACX_site8610]	9.52
CTTTAACCATATATGTGTACGTATTTTATTCATATT [XGTACX_site6212]	9.56
AAGAAGTGGAAAATATACTCCACATATATATATGTG [CACACA_negctrl_site304]	9.24
AAAAAACAATTTGTGTGTACACATGATACGTTCGAT [XGTACX_site4112]	9.79
GCCCACACGAACCATGCATGCCACGATATAAACCAC [TGCATGCA_site322]	9.38
TTTTTTACAGAAAAATATTAAAATTATAAATGTGAA [GTGCAC_negctrl_site451]	8.95
TATGAAATTTTAATTACACACAGGAAAATAAAATGT [CACACA_site8430]	9.57
TAATATATATATATGGTGCATTTAATTTATATATAA	9.11
TTATAATATATATAAAAGAAAAAAAATTATAATATA [CACACA_negctrl_site90]	9.15
TTATTTTTCTTTATTGGTACACACGAAAAAAAAATT [XGTACX_site6482]	9
TGCAATATATCAAAGTGTACATGCAATAAAAAAAAA [XGTACX_site652]	9.29
AATGATACACATATATGTACATATATATATATATAT [XGTACX_site5391]	9.45
ATATGGATTATACATACATGCATACATACATACATA [TGCATGCA_site475]	9.24

Sequence	gcPBM binding intensity (ln)
TATATACATATATGCACACAAAAAAATATATATTTT [CACACA_site1729]	9.39
AAAATTTAATATAATGCACACATAAAACAAAAACAA [CACACA_site8071]	9.74
AAATGTAGAAAAAGTTGTACACTGTTTCAAAAATAA [XGTACX_site1063]	9.13
TTTAAAGTTTTATACACACACCAAAGTTATTCTAAT [CACACA_site6432]	9.56
CAATGAAAAATAATGAGTACATAGTTAATAAAGATA [XGTACX_site72]	9.49
AATTTCTTTTTCGATATACACACTGTATGTGTCTAA [CACACA_site3975]	9.43
ATAATTAAAATTAAATGTACTTTTTTATATATTTTT [XGTACX_site2209]	9.05
ATATTTTATTATATAGGTACACATAATTTCATGTAA [XGTACX_site415]	9.22
ATCTTAATTTTTGAAGGTACACACTAATATATTAAA [XGTACX_site2292]	9.25
TATATAGTAAATATTTGTACATAATAAAATATATGT [XGTACX_site7873]	9.26
TTTTGTACATCTTTTGCACACGTAATGTTATTATAA [CACACA_site1259]	9.51
AATAAATAAAAATGCACACAGTTAACATGTTGAATT [CACACA_site4795]	9.68
TATAATATAAAAATGAGTACATAGATAATAATATTT [XGTACX_site2376]	9.43
TTTTTTTTTTATTAATGTACAAGATATATAATGTTA [XGTACX_site4809]	8.88
TTTTAGTTATTGTATTATTATTAATATATAATATCT [CACACA_negctrl_site1528]	9.25
CTAAAATGTAAAAACGCACACATAATATTATAAAAA [CACACA_site2788]	9.62
AAAGCATGTTAATATGTATAAATACTGATCATTCAC [GTGCAC_negctrl_site576]	9.22
TATATAAATAAACACACACACACCTTATAATTATTA [CACACA_site9345]	9.93
CTTGTCATTTGGCACACACACATGTATAGGTTATTA [CACACA_site5656]	9.9
TGAATAAATCAAAGCACACATACACAGACATATATA [CACACA_site4316]	9.76
